Measured values from PubChem BioAssay AID624296 (National Center for Advancing Translational Sciences (NCATS), 2012).
Hit rate of the full screen: of about 350,000 compounds, about 9,900 (2.8%) were called active. The inconclusive results got no clear call from the source; some entries with a clear call stand among them for comparison. Calls come from the whole dose curve; as a rule, active = well fitted activation curve with a large enough effect; inconclusive = small, poorly fitted or top-dose-only effect; inactive = no such curve, though single readings can be large or run the other way. Potencies of inconclusive entries are left out as doubtful fits.

Assay: A quantitative high throughput screen for small molecules that induce DNA re-replication in MCF 10a normal breast cells. For activity, positive = re-replication: % of control where 0% means no effect. Note: nearly all actives have a fitted effect of over 50% in size.
Conditions: MCF 10A DNA re-replication, Hoechst nuclear intensity, 48 h; activity, positive = re-replication: at 46.1 µM (top of the series)
Potency is the fitted concentration of half-maximal effect; tags give direction and shape of the fitted curve.

Row | SMILES | Potency | activity, positive = re-replication
1 | C=CCn1c(-c2cccn(Cc3ccc(Cl)cc3)c2=O)n[nH]c1=S | inactive | –
2 | Cc1cc2sc3ccc(C#CC4(O)CCCCC4)cc3c(=O)c2cc1C | inconclusive [activator, partial curve, poor fit] | –
3 | CCOc1cc(S(=O)(=O)Nc2ccc(CC)cc2)ccc1Cl | inconclusive [activator, single point] | –
4 | CCCCNC(=O)n1c(SC)nc2ccccc21 | inconclusive [activator, partial curve, poor fit] | –
5 | COC(=O)c1cc(CN2CCN(c3ccccc3C)CC2)ccc1O | inconclusive [activator, partial curve, poor fit] | –
6 | Nc1c(S(=O)(=O)c2cccs2)c2nc3ccccc3nc2n1Cc1ccccc1 | – | inactive: 578% [at 0.0737 µM]
7 | CCCN1CCC(=O)N(CCSc2ccc(C)cc2)CC1 | inactive | –
8 | Cc1ccc(C(=O)SC2=NCCS2)cc1 | inconclusive [activator, single point] | –
9 | O=c1nc2ccccc2c(NS(=O)(=O)c2ccc(Cl)cc2)n1-c1ccccc1 | inconclusive [activator, partial curve, poor fit] | –
10 | CCc1ccc2c(Cl)c(C(=O)N/N=C/c3c[nH]c4ccccc34)sc2c1 | inconclusive [activator, full curve] | –
11 | COc1ccc(-c2cc(C(F)F)n3ncc(C(=O)N4CCc5ccccc54)c3n2)cc1 | active: 4.61 µM | –
12 | CC(=O)c1cccc(NC(=O)NCCc2c[nH]c3ccccc23)c1 | inconclusive [activator, single point] | –
13 | O=C(c1cc(-c2ccccc2)nc2ccccc12)N1CCc2ccccc2C1 | inactive | –
14 | O=C(Nc1cccc(Cl)c1)Nc1nnc(-c2ccncc2)s1 | active: 5.8 µM | –
15 | O=C(Nc1nc2c(c(=O)[nH]1)CCCC2)C1CC1 | inactive | –
16 | C/C(=N/NS(=O)(=O)c1ccccc1)c1ccc(NC(=O)C(F)(F)F)cc1 | inconclusive [activator, single point] | –
17 | Cc1ccc2cc(CCNC(=O)c3cc4ccccc4o3)c(=O)[nH]c2c1C | inconclusive [activator, single point] | –
18 | COc1ccc(C(=O)Nc2nnc(S(=O)(=O)N(C)Cc3ccc(F)cc3)s2)cc1OC | inconclusive [activator, partial curve, poor fit] | –
19 | O=C1NC(=Nc2ccccc2Cl)S/C1=C\c1ccc(C(=O)O)cc1 | inactive | –
20 | CCOc1ccccc1OCC(=O)NNC(=O)Cn1cnc2c1c(=O)n(C)c(=O)n2C | inactive | –
21 | COc1ccc(-n2c(-c3ccc(Cl)cc3)c[nH]c2=S)cc1 | inconclusive [activator, full curve, poor fit] | –
22 | C/C(N)=C(/C#N)C(=O)COC(=O)c1ccccc1Cc1ccccc1 | inconclusive [activator, single point] | –
23 | COc1ccc(C=NNC(=O)c2cc(C)oc2C)cc1O | inconclusive [activator, single point] | –

Row | SMILES | Potency | activity, positive = re-replication
24 | Cc1ccc(NC(=O)CC2Nc3ccccc3NC2=O)cc1Cl (stereo not given) | active: 2.59 µM | –
25 | O=C(CCn1c(=O)sc2ccccc21)NCCC1=CCCCC1 | inactive | –
26 | COc1ccc(CNCCC(c2ccc(OC(C)C)cc2)c2ccccc2OC)cc1 (stereo not given) | inconclusive [activator, single point] | –
27 | Cc1cc2c(sc3c(C)ccc(C)c32)c(C)n1 | inconclusive [activator, single point] | –
28 | COc1cc(OC)c2c(-c3cccc(-c4ccc(O)cc4)c3)cc(=O)oc2c1 | inconclusive [activator, full curve, poor fit] | –
29 | Cc1cc(N/N=C/c2ccc(F)cc2)nc(NCc2ccccc2)n1 | inconclusive [activator, single point] | –
30 | CCn1c(SCC(=O)Nc2ccc3c(c2)OCO3)nc2ccccc21 | inactive | –
31 | CC(C)(C)C1CCC(OC(=O)c2ccncc2)CC1 (stereo not given) | inconclusive [activator, single point] | –
32 | COc1cc2cc(CCCOC(=O)CCC(=O)O)oc(=O)c2cc1OC | inactive | –
33 | CO/N=C/c1ccc(Oc2ccc([N+](=O)[O-])cc2[N+](=O)[O-])c(OC)c1 | inconclusive [activator, single point] | –
34 | Cc1cc(Cl)c(S(=O)(=O)Nc2cc(S(=O)(=O)N3CCOCC3)ccc2F)cc1OCC(N)=O | active: 0.651 µM | –
35 | COc1ccc(C(=O)n2c(-c3ccco3)nc3ccccc32)cc1 | active: 8.91 µM | –
36 | CCCOc1cc(NCc2ccccc2)c2ncn(C(C)C)c2c1 | inconclusive [activator, single point] | –
37 | N#C/C(=C\c1cn[nH]c1-c1ccc(Cl)cc1)C(=O)NCc1ccccc1 | inconclusive [activator, single point] | –
38 | O=C(/C=C/NNC(=O)c1ccccc1)c1ccc(Br)cc1 | inconclusive [activator, single point] | –
39 | Cc1cnc(CN2CCc3c([nH]c4ccccc34)C2CC(C)C)[nH]1 (stereo not given) | inconclusive [activator, partial curve, poor fit] | –
40 | COc1ccc(-c2ccc(C#N)c(SCC(=O)Nc3sc4c(c3C#N)CCC4)n2)cc1 | inconclusive [activator, full curve, poor fit] | –
41 | CCC(C)(C)NC(=O)C(c1ccccc1)N(Cc1cccnc1)C(=O)c1csnn1 (stereo not given) | inconclusive [activator, partial curve, poor fit] | –
42 | CC(=NNC(=O)c1ccncc1)c1ccc2ccccc2c1O | active: 18.4 µM | –
43 | CCN(CC)S(=O)(=O)c1cccc(-c2nnc(SC(C)C#N)n2Cc2ccccc2)c1 (stereo not given) | inconclusive [activator, single point] | –
44 | Cc1ccc(-c2nn(-c3ccc(F)cc3)cc2C(=O)NCCCN2CCCC2=O)cc1 | inactive | –
45 | COc1ccc(/C=C2\CCc3ccccc3C2=O)cc1Cn1nc(C)cc1C | inconclusive [activator, partial curve, poor fit] | –
